Patent US20210147571A1, “MONOCLONAL ANTIBODY TARGETING HUMAN TUMOR STEM CELLS AND USE THEREOF” (Suzhou Bojuhua Biomedical Technology Co. Ltd, priority 2017, published 2021)

Legend:
Bel7402-V13 cells = assay: flow immunofluorescence, positive cells in parental and sphere cells; format: binding, human; details: BEL7402 V13, Table 32
Procedure: (§1) The human liver cancer cell line Bel7402-V13 and MHCC97L cells were cultured for 5 days in a serum-free manner, and the Hetumomab^+ cells in the parental cells and in the cells from sphere culture were detected by viable cell flow fluorescence cytometry. […] That is, after serum-free culture, Hetumomab^+ cells of the liver cancer cell line were enriched.
(§2) As described above, four cell lines, SNU-5, BGC-823, MHCC-97L, and BEL7402 V13, were used to harvest both parental cells and tumor-stem-cell-rich sphere cells. […] The results are as follows:
(§3) According to the aforementioned method, four cell lines, SNU-5, BGC-823, MHCC-97L, and BEL7402 V13, were used to harvest both parental cells and tumor-stem-cell-rich sphere cells. […]

MHCC97L cells = assay: as above; format: binding, human; details: MHCC-97L, Table 32
Procedure: as §1, §2, §3

BGC-823 cells = assay: as above; format: binding, human; details: BGC-823, Table 32
Procedure: (§4) The human gastric cancer cell line SNU-5 and BGC-823 cells were cultured for 5 days in a serum-free manner, and the Hetumomab^+ cells in the parental cells and in the cells from sphere culture were detected by viable cell flow fluorescence cytometry. […] That is, after the serum-free culture, Hetumomab^+ cells of the gastric cancer cell line were enriched.
as §2, §3

SNU-5 cells = assay: as above; format: binding, human; details: SNU-5, Table 32
Procedure: as §4, §2, §3

BGC-823 sphere cells = assay: sphere-forming inhibition (self-renewal); format: cell-based, human; details: Table 33
Procedure: (§5) The main manifestation of the self-renewal ability of tumor stem cells is the ability to form spheres in serum-free medium, which is called asymmetric division, that is, when one cell divides into two daughter cells, one of the daughter cells maintains the same features as the parental cell, while the other daughter cell may continue to divide, forming normal daughter cells. […] And then Hetumomab (250 μg/mL) was used as the experimental group, and the PBS was used as a negative control group to incubate with the cells at 37° C. for 2 h, during which the cells were mixed with the antibody or the negative control once every half an hour. 500 cells in each group were inoculated into a semi-solid sphere medium (containing EGF, LIF, bFGF, etc.) containing 0.8% methylcellulose, and cultured in an ultra-low adhesion 24-well plate. 1-1.5 mL liquid medium was added every other day, and the number of spheres formed from the two groups was observed after 14 days.

Bel7402-V13 sphere cells = assay: sphere-forming inhibition (self-renewal); format: cell-based, human; details: Table 33
Procedure: as §5

MHCC-97L sphere cells = assay: sphere-forming inhibition (self-renewal); format: cell-based, human; details: Table 33
Procedure: as §5

SNU-5 sphere cells = assay: sphere-forming inhibition (self-renewal); format: cell-based, human; details: Table 33
Procedure: as §5

[1] = test system: Bel7402-V13 transplanted tumor; assay: human liver cancer transplanted tumor treated with Hetuzumab H5L11; format: in vivo, nude mice
Procedure: Specifically, the sphere cells of the human liver cancer cell line Bel7402-V13 were harvested and inoculated subcutaneouly into nude mice at 30000 cells/mouse. […] The antibody treatments were started on the second day after inoculation of cancer cells. The experimental group and the control group were treated by intraperitoneal injection. The antibody treatments were performed for 36 days. The chemotherapeutic drug group was treated for 4 weeks, twice a week. The major and minor diameters of the subcutaneously transplanted tumor were measured twice a week. The tumor volume was calculated with the formula V=(π/6)×(major diameter×minor diameter×minor diameter). The change in tumor volume in each group was observed.

[2] = test system: Hetumomab target antigen in liver, lung, gastric cancer tissue sections; assay: immunohistochemistry of antigen-positive and negative tissue sections; format: binding, human; details: Example 11
[3] = test system: Hetumomab target antigen on cells; assay: cell ELISA affinity of humanized chain versions; format: binding, human; details: heavy chain version combined with L11
Source text: Based on the H1 heavy chain sequence, two other heavy chain mutants were designed as initial humanization: H2 and H3. The degree of humanization of these versions was in descending order. […] Since H1 was the most humanized version in which the framework regions were all humanized, H1 was finally determined as the preferred humanization molecular template.
Based on the L1 with fully humanized FR region, L2 and L3 were designed, and the degree of humanization of the three version was also in descending order. […] In order to find out which key amino acids were mutated during humanization, back mutations were performed, and nine different mutants (L4-L12) were prepared.
Therefore, L6, L11, and L12 were finally selected for optimization screening of the best light chain humanized version.
However, glycosylated isomers of Hetuzumab H1 heavy chain were confirmed by antibody sequence analysis and reductive electrophoresis analysis. In the analysis of H1 heavy chain expression products by electrophoresis, H1L6, H1L11, and H1L12 were all shown with weak sub-bands visible below the main band of the heavy chain. […] This may cause serious quality problems of uniformity, which is very unfavorable for drug development. […] H4 and H5 were combined with L11, respectively, and analyzed by electrophoresis after expression. […]

[4] = BEL7402 V13, antibody 160 ug/ml

B1: Hetuzumab H5L11: humanized antibody, heavy chain SEQ ID NO:36 and light chain SEQ ID NO:47 (antibody)
heavy: QVTLKESGPTLVKPTQTLTLTCTFSGFSLSTSGMGVSWIRQPPGKALEWLAHIYWDDDKRYNPSLKSRLTISKDTSKNQVVLTMTNMDPVDTATYYCARSFYYYAANSFAYWGQGTLVTVSS[human IgG1 constant region left out here]
light: DIVMTQTPFSNPVTLGQPASISCRSSKSLLHSNGITYLYWFLQKPGQSPQLLIYQMSNLASGVPDRFSGSGSGTDFTLKISRVEAEDVGVYYCAQNLELYTFGQGTKVEIKRTVAAPSVFIFPPSDEQLKSGTASVVCLLNNFYPREAKVQWKVDNALQSGNSQESVTEQDSKDSTYSLSSTLTLSKADYEKHKVYACEVTHQGLSSPVTKSFNRGEC
modifications: Humanized heavy chain H5; Humanized light chain L11
positive rate, Parent (Bel7402-V13 cells): 6.94%
positive rate, Sphere (Bel7402-V13 cells): 11.31%
positive rate, Parent (MHCC97L cells): 6.85%
positive rate, Sphere (MHCC97L cells): 14.66%
positive rate, Parent (BGC-823 cells): 3.39%
positive rate, Sphere (BGC-823 cells): 5.42%
positive rate, Parent (SNU-5 cells): 3.59%
positive rate, Sphere (SNU-5 cells): 5.92%
Average number of formed spheres (BGC-823 sphere cells; BGC-823, antibody 10 ug/ml): 225
Inhibition Rate (%) (BGC-823 sphere cells; BGC-823, antibody 10 ug/ml): 11.1%
Average number of formed spheres (BGC-823 sphere cells; BGC-823, antibody 20 ug/ml): 198
Inhibition Rate (%) (BGC-823 sphere cells; BGC-823, antibody 20 ug/ml): 21.7%
Average number of formed spheres (BGC-823 sphere cells; BGC-823, antibody 40 ug/ml): 188
Inhibition Rate (%) (BGC-823 sphere cells; BGC-823, antibody 40 ug/ml): 25.7%
Average number of formed spheres (BGC-823 sphere cells; BGC-823, antibody 80 ug/ml): 155
Inhibition Rate (%) (BGC-823 sphere cells; BGC-823, antibody 80 ug/ml): 38.7%
Average number of formed spheres (BGC-823 sphere cells; BGC-823, antibody 160 ug/ml): 135
Inhibition Rate (%) (BGC-823 sphere cells; BGC-823, antibody 160 ug/ml): 46.6%
Average number of formed spheres (Bel7402-V13 sphere cells; BEL7402 V13, antibody 10 ug/ml): 205
Inhibition Rate (%) (Bel7402-V13 sphere cells; BEL7402 V13, antibody 10 ug/ml): 10.9%
Average number of formed spheres (Bel7402-V13 sphere cells; BEL7402 V13, antibody 20 ug/ml): 191
Inhibition Rate (%) (Bel7402-V13 sphere cells; BEL7402 V13, antibody 20 ug/ml): 17.0%
Average number of formed spheres (Bel7402-V13 sphere cells; BEL7402 V13, antibody 40 ug/ml): 151
Inhibition Rate (%) (Bel7402-V13 sphere cells; BEL7402 V13, antibody 40 ug/ml): 34.3%
Average number of formed spheres (Bel7402-V13 sphere cells; BEL7402 V13, antibody 80 ug/ml): 129.5
Inhibition Rate (%) (Bel7402-V13 sphere cells; BEL7402 V13, antibody 80 ug/ml): 43.7%
Average number of formed spheres (Bel7402-V13 sphere cells; [4]): 101
Inhibition Rate (%) (Bel7402-V13 sphere cells; [4]): 56.1%
Average number of formed spheres (MHCC-97L sphere cells; antibody 10 ug/ml): 212
Inhibition Rate (%) (MHCC-97L sphere cells; antibody 10 ug/ml): 12.0%
Average number of formed spheres (MHCC-97L sphere cells; antibody 20 ug/ml): 190
Inhibition Rate (%) (MHCC-97L sphere cells; antibody 20 ug/ml): 21.2%
Average number of formed spheres (MHCC-97L sphere cells; antibody 40 ug/ml): 160.5
Inhibition Rate (%) (MHCC-97L sphere cells; antibody 40 ug/ml): 33.4%
Average number of formed spheres (MHCC-97L sphere cells; antibody 80 ug/ml): 145
Inhibition Rate (%) (MHCC-97L sphere cells; antibody 80 ug/ml): 39.8%
Average number of formed spheres (MHCC-97L sphere cells; antibody 160 ug/ml): 110
Inhibition Rate (%) (MHCC-97L sphere cells; antibody 160 ug/ml): 54.4%
Average number of formed spheres (SNU-5 sphere cells; SNU-5, antibody 10 ug/ml): 218
Inhibition Rate (%) (SNU-5 sphere cells; SNU-5, antibody 10 ug/ml): 11.0%
Average number of formed spheres (SNU-5 sphere cells; SNU-5, antibody 20 ug/ml): 188
Inhibition Rate (%) (SNU-5 sphere cells; SNU-5, antibody 20 ug/ml): 23.3%
Average number of formed spheres (SNU-5 sphere cells; SNU-5, antibody 40 ug/ml): 178
Inhibition Rate (%) (SNU-5 sphere cells; SNU-5, antibody 40 ug/ml): 27.3%
Average number of formed spheres (SNU-5 sphere cells; SNU-5, antibody 80 ug/ml): 156
Inhibition Rate (%) (SNU-5 sphere cells; SNU-5, antibody 80 ug/ml): 36.3%
Average number of formed spheres (SNU-5 sphere cells; SNU-5, antibody 160 ug/ml): 126
Inhibition Rate (%) (SNU-5 sphere cells; SNU-5, antibody 160 ug/ml): 48.6%
Tumor Volume Inhibition Rate (%) ([1]; High Dose 20 mg/kg i.p., day 36): 47.47%
Tumor Volume Inhibition Rate (%) ([1]; High Dose, After Growth of Tumor): 45.65%
Tumor Volume Inhibition Rate (%) ([1]; Low Dose 1.25 mg/kg i.p., day 36): 36.80%
staining of negative tissue sections ([2]; 10 negative sections): did not stain
staining of target antigen-positive tissue sections ([2]; 10 positive sections): positively stain
affinity by cell ELISA [3]: approximately comparable affinity
